Test results as given in publication PMC12677587.
No constants are given. Whether binding was seen depends on the method and setting. In cells and extracts the contact can be indirect. Some binding calls cover weakened binding; strength is not graded here.

The chains behind the UniProt entries cited, without tags or fusion partners.
UniProt Q06609: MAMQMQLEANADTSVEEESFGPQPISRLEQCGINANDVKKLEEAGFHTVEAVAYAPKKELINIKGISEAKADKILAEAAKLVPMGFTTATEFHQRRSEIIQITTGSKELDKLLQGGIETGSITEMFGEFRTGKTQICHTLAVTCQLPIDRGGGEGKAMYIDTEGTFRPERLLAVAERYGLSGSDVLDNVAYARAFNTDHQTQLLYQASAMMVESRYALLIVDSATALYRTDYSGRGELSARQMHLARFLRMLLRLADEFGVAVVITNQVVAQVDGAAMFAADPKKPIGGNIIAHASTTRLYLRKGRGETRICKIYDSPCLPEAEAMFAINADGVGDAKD

Biological target: T1, endogenous UHRF1 (human (endogenous in HEK293T)) (UniProt Q96T88)
T1 sequence: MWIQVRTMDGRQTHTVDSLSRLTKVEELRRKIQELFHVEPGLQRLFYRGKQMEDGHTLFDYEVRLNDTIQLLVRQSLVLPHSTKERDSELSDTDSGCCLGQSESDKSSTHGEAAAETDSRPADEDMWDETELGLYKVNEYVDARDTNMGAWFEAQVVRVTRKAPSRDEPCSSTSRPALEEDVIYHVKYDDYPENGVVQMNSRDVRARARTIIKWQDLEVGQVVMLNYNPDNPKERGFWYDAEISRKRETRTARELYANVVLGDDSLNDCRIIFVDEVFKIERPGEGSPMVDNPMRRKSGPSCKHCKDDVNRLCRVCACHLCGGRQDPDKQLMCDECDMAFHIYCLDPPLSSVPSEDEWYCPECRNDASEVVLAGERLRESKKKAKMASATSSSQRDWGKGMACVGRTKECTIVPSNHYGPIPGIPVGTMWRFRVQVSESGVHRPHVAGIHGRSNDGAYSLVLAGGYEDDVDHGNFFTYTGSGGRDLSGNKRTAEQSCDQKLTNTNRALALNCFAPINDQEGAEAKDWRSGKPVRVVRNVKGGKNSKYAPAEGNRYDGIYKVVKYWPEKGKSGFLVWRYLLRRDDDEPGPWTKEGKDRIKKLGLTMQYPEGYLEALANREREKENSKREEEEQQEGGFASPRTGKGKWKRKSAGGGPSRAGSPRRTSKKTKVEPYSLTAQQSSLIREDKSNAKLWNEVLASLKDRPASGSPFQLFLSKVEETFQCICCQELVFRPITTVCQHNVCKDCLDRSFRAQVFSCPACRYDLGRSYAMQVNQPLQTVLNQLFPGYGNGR
Assay: co-IP; endogenous UHRF1 and RFWD3 in HEK293T cells overexpressing RAD51 or RAD51^R254Q

binding: binds
Substance: RAD51 overexpressed in HEK293T cells (from UniProt Q06609 1-339)
